About 17,000 (4.4%) of roughly 390,000 compounds were called active. Inconclusive results, whose numbers are uncertain, are shown with a selection of clear calls. Calls follow the shape of the dose curve; as a rule, active = well fitted inhibition curve with a large enough effect; inconclusive = small, poorly fitted or top-dose-only effect; inactive = no such curve, though single readings can be large or run the other way. Potencies of inconclusive entries are doubtful fits and often do not repeat.
molecular target: Lysine-specific demethylase 4A (Homo sapiens) (UniProt O75164); experiment: qHTS Assay for Inhibitors of JMJD2A-Tudor Domain; settings: AlphaScreen JMJD2A-Tudor / H3K4me3 peptide binding; activity change, negative = inhibition: at 114 µM (top of the series); also: nearly all actives have a fitted effect of over 50% in size
Chain of UniProt O75164 (O75164 whole entry, looked up, the tested form may be a part): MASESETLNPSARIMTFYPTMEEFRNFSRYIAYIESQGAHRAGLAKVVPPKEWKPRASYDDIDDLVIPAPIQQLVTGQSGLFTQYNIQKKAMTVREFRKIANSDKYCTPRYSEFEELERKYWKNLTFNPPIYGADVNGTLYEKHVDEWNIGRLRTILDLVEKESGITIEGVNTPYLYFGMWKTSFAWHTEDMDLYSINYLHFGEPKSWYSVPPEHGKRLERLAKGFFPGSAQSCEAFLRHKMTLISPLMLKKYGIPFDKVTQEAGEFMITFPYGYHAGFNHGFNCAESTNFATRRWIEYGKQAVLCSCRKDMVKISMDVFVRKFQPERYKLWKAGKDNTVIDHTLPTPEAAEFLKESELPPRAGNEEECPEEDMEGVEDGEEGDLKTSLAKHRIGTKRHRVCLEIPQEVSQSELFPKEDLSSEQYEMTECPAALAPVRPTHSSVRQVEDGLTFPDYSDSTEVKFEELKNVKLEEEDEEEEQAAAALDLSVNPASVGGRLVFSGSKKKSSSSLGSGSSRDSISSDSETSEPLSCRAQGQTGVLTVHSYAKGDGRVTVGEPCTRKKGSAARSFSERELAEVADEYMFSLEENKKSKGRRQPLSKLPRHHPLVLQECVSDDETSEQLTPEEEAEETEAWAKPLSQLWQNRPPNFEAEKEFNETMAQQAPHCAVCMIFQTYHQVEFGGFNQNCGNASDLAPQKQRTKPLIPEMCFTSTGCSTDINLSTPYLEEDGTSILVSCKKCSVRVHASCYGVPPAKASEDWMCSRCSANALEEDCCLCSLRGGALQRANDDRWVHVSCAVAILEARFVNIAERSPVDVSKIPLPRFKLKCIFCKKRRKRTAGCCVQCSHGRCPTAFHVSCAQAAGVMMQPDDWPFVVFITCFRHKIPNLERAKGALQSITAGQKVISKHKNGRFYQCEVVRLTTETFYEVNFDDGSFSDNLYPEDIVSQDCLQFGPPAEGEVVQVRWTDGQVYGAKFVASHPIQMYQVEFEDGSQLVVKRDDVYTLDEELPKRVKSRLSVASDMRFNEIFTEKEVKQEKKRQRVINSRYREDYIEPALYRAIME
% is scaled to controls: 0 for no effect and ±100 for the full control effect; potency is read from the fitted curve at half-maximal effect; tags tell the direction and shape of the fitted curve.

SMILES	activity change, negative = inhibition	Potency
Nc1ncnc2c1ncn2C1CCCC(CO)O1 (configuration not stated)	inactive: -5.52%	
O=C(Nc1ccccc1N1CCOCC1)c1ccc(Cl)c(S(=O)(=O)NCc2ccco2)c1		inconclusive: 56.2 µM [inhibitor, partial curve]
COCCNC(=S)NN=C1CCC(c2ccccc2)CC1 (configuration not stated)		inconclusive: 44.7 µM [inhibitor, partial curve, poor fit]
CCN(CC(=O)Nc1ccccc1OC)C(=O)CSCc1c(C)noc1C		inconclusive: 3.16 µM [inhibitor, single point]
O=C(Cc1cn2ccsc2n1)Nc1nc2c(s1)CN(Cc1ccccc1)CC2		inconclusive: 56.2 µM [inhibitor, partial curve]
O=C1CN(C(=O)COc2ccccc2Cl)c2ccccc2N1	inactive: -11.3%	
COc1ccc(NC(=O)COC(=O)c2cc(=O)c3ccccc3o2)cc1OC	inactive: -5.26%	
CCNC(=S)N1CCN(Cc2ccccc2)CC1		active: 8.91 µM
COc1cc(-c2nnc(NC(=O)CS(=O)(=O)c3ccc(C)cc3)o2)cc(OC)c1OC		active: 25.1 µM
O=C(c1ccc(-n2cncn2)c([N+](=O)[O-])c1)N1CCN(S(=O)(=O)c2ccc(F)c(F)c2)CC1	inactive: -10%	
NS(=O)(=O)c1cccc(NC(=O)CSc2ccccn2)c1	inactive: -2.88%	
Cc1ccc(NC(=O)CSc2n[nH]c(-c3ccncc3)n2)c(C)c1	inactive: -4.29%	
O=C(C1=C[C@H](c2ccc(Br)cc2)C[C@H](OCCCCO)O1)N1CCN(Cc2ccc3c(c2)OCO3)CC1		inconclusive: 56.2 µM [inhibitor, partial curve]
CS(=O)(=O)Nc1cccc(C2=NN(S(=O)(=O)c3ccccc3)C(c3ccco3)C2)c1 (configuration not stated)		inconclusive: 22.4 µM [inhibitor, partial curve]
O=C(Oc1cccc(/C=N/NC(=O)c2ccccn2)c1)c1ccc([N+](=O)[O-])cc1		inconclusive: 35.5 µM [inhibitor, single point]
O=C(c1ccco1)N1CCN(CC(=O)N2c3ccccc3CCc3ccccc32)CC1		active: 1 µM
C#CCOCCOCCOCCNc1nc(N2CCN(C(=O)CCCCCCCCCCNC(=O)Cn3cc(CCCCCN)nn3)CC2)nc(N2CCN(C(=O)CCCCCCCCCCNC(=O)Cn3cc(C[C@@H](C)O)nn3)CC2)n1		active: 25.1 µM
CC(C)(C)NC(=O)c1ccc2c(c1)N(CC(=O)N1CCN(c3ccccc3F)CC1)C(=O)C(C)(C)O2		inconclusive: 5.62 µM [inhibitor, full curve, poor fit]
CCn1c(SCC(=O)Nc2cc(NC(C)=O)ccc2OC)nnc1-c1ccccn1		active: 50.1 µM
COc1ccc(-c2n[nH]c(=S)n2-c2ccc(C)cc2)cc1		inconclusive: 8.91 µM [inhibitor, partial curve]
COc1cccc(NC(=O)CN(C)C(=O)c2cc3c(s2)CCC3)c1		inconclusive: 2.24 µM [inhibitor, full curve, poor fit]
CCN(CC)S(=O)(=O)c1ccc(C)c(NC(=O)Cn2cnc3cc([N+](=O)[O-])ccc3c2=O)c1		inconclusive: 89.1 µM [inhibitor, partial curve]
Fc1ccc(OCc2nc3ccccc3s2)cc1	inactive: 29.9%	
CCCCNCCOCCSc1ccc(Cl)cc1		active: 1.41 µM

SMILES	activity change, negative = inhibition	Potency
CCn1ccc2cc(S(=O)(=O)N3CCCN(C(=O)NCCOC)CC3)ccc21	inactive: 4.79%	
CCOc1ccccc1C1C2=C(COC2=O)Nc2cc3c(cc21)OCO3 (configuration not stated)		inconclusive: 56.2 µM [inhibitor, partial curve]
COc1cccc(OCC(O)CN2CCN(c3ccc(Cl)cc3)CC2)c1 (configuration not stated)		inconclusive: 63.1 µM [inhibitor, partial curve, poor fit]
CCOC(=O)C1=C(CN2CCN(c3cc(C)ccc3C)CC2)NC(=O)NC1c1ccc(Cl)cc1 (configuration not stated)		inconclusive: 5.62 µM [inhibitor, single point]
COc1ccc2c(c1OC)C(=O)OC2CC(=O)c1ccc(O)c(O)c1 (configuration not stated)		active: 5.01 µM
Cc1c(-c2ccccc2)c(=O)oc2cc(O)ccc12	inactive: 3.62%	
NS(=O)(=O)c1ccc(CCNC(=O)C2CC(=O)N(Cc3ccccc3Cl)C2)cc1 (configuration not stated)	inactive: -13.4%	
CCNC(=S)N(CCc1c(C)[nH]c2ccccc12)Cc1cc(OC)c(OC)c(OC)c1		inconclusive: 63.1 µM [inhibitor, partial curve]
Cc1nn(Cc2ccc(F)cc2)c(C)c1NC(=O)c1cc(-c2ccc3c(c2)OCO3)on1	inactive: -16.4%	
Cc1nc(CSc2nsc(/C=C/N(C)C)c2C#N)cs1		inconclusive: 50.1 µM [inhibitor, partial curve]
CCCCSc1nc2sc3c(c2c(=O)n1-c1ccc(C)cc1)CCN(C)C3		inconclusive: 89.1 µM [inhibitor, partial curve]
CCn1nc(-c2ccc(C)cc2)nc2c(=O)n(C)c(=O)nc1-2	inactive: -6.15% [at 57.1 µM]	
COc1ccccc1N1CCN(Cc2cc3c(cc2Br)OCCO3)CC1		inconclusive: 56.2 µM [inhibitor, partial curve]
O=C(Nc1ccc(O)cc1)C1CC=CCC1 (configuration not stated)		inconclusive: 12.6 µM [inhibitor, full curve, poor fit]
Cc1ccccc1NCC(=O)N/N=C/c1c[nH]c2ccccc12		inconclusive: 25.1 µM [inhibitor, partial curve]
C=CCNC(=S)N/N=C(\C)c1ccccn1		active: 44.7 µM
CCOC(=O)C1=C(C)NC(=S)NC1c1ccco1 (configuration not stated)		inconclusive: 14.1 µM [inhibitor, full curve]
COc1cccc(NC(=O)CN(C)C(=O)c2cc(-c3ccc(C)o3)nc3ccccc23)c1		inconclusive: 89.1 µM [inhibitor, partial curve, poor fit]
CCn1c(=S)[nH]c2nc3c(cc2c1=O)CCCC3	inactive: -3.6%	
NC(=O)C1CCN(C(=O)Cn2c(-c3cccs3)cc3ccccc32)CC1	inactive: -1.32%	
CCC(=O)NC(=S)NNC(=O)c1ccc([N+](=O)[O-])cc1		active: 79.4 µM
CCc1ccccc1Nc1nc2ccccc2n2cnnc12	inactive: -0.343%	
Cc1ccc(NC(=S)Nc2ccc(C(C)C)cc2)cc1S(=O)(=O)N1CCCCCC1	inactive: -25.3%	
NC(=O)c1ccc(C(F)(F)F)n(Cc2ccccc2Cl)c1=O		inconclusive: 89.1 µM [inhibitor, partial curve]

SMILES	activity change, negative = inhibition	Potency
O=[N+]([O-])c1ccc(C2(O)CN(c3ccccc3)C3=[N+]2CCS3)cc1 (configuration not stated)		inconclusive: 2.82 µM [inhibitor, full curve]
CCOc1ccc(Nc2cc(C)nc(-n3nc(C)cc3C)n2)cc1		inconclusive: 56.2 µM [inhibitor, partial curve]
O=C(CCCN1C(=O)/C(=C\c2ccccc2)SC1=S)Nc1ccc(C(=O)O)cc1		inconclusive: 56.2 µM [inhibitor, partial curve]
O=[N+]([O-])c1ccccc1-c1ccc(C(=S)N2CCN(c3ccccc3)CC2)o1		active: 22.4 µM
CN(C)c1ccc(CNS(=O)(=O)c2ccc3c(c2)C(C)(C)C(=O)N3C)cc1		inconclusive: 10 µM [inhibitor, full curve, poor fit]
Cc1ccc(C(=O)c2c(NC(=O)CSc3nnc(N)s3)sc3c2CCCC3)cc1		inconclusive: 39.8 µM [inhibitor, partial curve]
C=CCc1c(OC)ccc2c1c(S(=O)(=O)c1ccc(C)cc1)cn2COC		inconclusive: 79.4 µM [inhibitor, partial curve]
O=C1CSC(=S)N1N=C1CCCCCC1	inactive: -24%	
Cc1cccc(C2=NN(c3ccccc3)[C@@H](C(=O)N3CCOC3=O)[C@@H]2c2ccc([N+](=O)[O-])cc2)c1		inconclusive: 39.8 µM [inhibitor, partial curve]
CC(C)c1ccc(NCCC(=O)c2cccs2)cc1		inconclusive: 44.7 µM [inhibitor, single point]
CN(C)CCCn1c(SCc2ccc(Cl)cc2)nnc1-c1ccncc1		active: 20 µM
Cc1cccc(NC(=O)CSc2nccn2-c2cccc(Cl)c2)c1C		inconclusive: 56.2 µM [inhibitor, partial curve]
CCCSCC(=O)Nc1ncc2c(n1)-c1ccccc1CC2		inconclusive: 79.4 µM [inhibitor, partial curve]
CC(=O)c1c(C)nc2ccc([N+](=O)[O-])cc2c1-c1ccccc1		inconclusive: 56.2 µM [inhibitor, partial curve]
CCC(=O)Nc1cc(Cl)ccc1C(=O)O		active: 79.4 µM
O=C(Nc1nnc(-c2ccco2)o1)c1ccc(N2C(=O)CCC2=O)cc1		active: 28.2 µM
CCN(CC)CCOC(=O)c1ccc(NC(=O)CCCN2C(=O)S/C(=C/c3ccc(OC)cc3)C2=S)cc1		inconclusive: 11.2 µM [inhibitor, full curve]
N#Cc1ccc(Nc2nc(-c3ccc(O)cc3O)cs2)cc1C(F)(F)F		inconclusive: 56.2 µM [inhibitor, partial curve]
COc1cc(C(=O)N2CCC(N3CCCCCC3)CC2)cc(OC)c1OC		active: 7.08 µM
O=C(O)c1ccccc1N=N/C(=N/Nc1cc(S(=O)(=O)O)ccc1O)c1ccccc1		active: 12.6 µM
NC(=O)CSc1nnc(-c2ccccn2)n1N		active: 70.8 µM
O=C(O)c1ccc(NC(=S)NC(=O)c2ccc(-c3ccccc3)cc2)cc1		inconclusive: 44.7 µM [inhibitor, full curve]
C=CCn1c(C23CC4CC(CC(C4)C2)C3)n[nH]c1=S		active: 11.2 µM
COc1ccc(-c2noc3c2-c2nc(-c4ccccc4)sc2CC3)cc1	inactive: -9.86%	

From PubChem BioAssay AID504339 (National Center for Advancing Translational Sciences (NCATS), 2011)
